# The full ranking holds about 33,000 sequences; the median of “E-score (-0.5 to 0.5)” is about -0.016, and the highest 2% start at about 0.31. Some of the results follow.
# Molecular target: Cst6 (UniProt P40535)
# Assay: PBM E-score (8-mer binding enrichment) (E-score (-0.5 to 0.5)); higher = stronger / more preferred TF binding; most listed sequences are background and not binding sites
# Settings: protein concentration: 200 nM; construct: GST-DNA-binding domain
# How it was run: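 Masliner-normalised scans of fluorescent anti-GST signal were the basis for scoring. That signal came from GST-tagged yeast transcription factors applied at about 100-200 nM to double-stranded universal all-10-mer Agilent arrays on fresh or once-stripped slides. Each ungapped eight-base word, pooled with its reverse complement, received an E-score from the Universal PBM Analysis Suite.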
row,Sequence,PBM E-score
1,GAACAGCA,-0.101
2,ACAGTCGT,-0.105
3,GTGGCGAA,-0.00674
4,ATGACAAC,0.302
5,GCTCAACA,0.00967
6,AAGCGACT,-0.123
7,AAAATTCC,0.129
8,CACGAAGC,0.0577
9,ACTTGCCT,-0.0735
10,GTTTCCCA,-0.028
11,GATGCGAC,-0.0585
12,CGCGGCAC,0.324
13,ACTTCGTC,0.0738
14,AGTTCCGA,-0.142
15,GCATTTGA,0.0785
16,ACGGGGTA,-0.165
17,CCGACTTC,-0.395
18,TGCATAAA,0.173
19,GGTTGTCA,0.0148
20,AGGACCTC,-0.264
21,AAGACTCT,-0.0379
22,GTGCGGCA,0.311
23,ACAATAGC,-0.178
24,CCGTCTGA,0.0102
25,CCGTTTGA,0.0282

row,Sequence,PBM E-score
1,ACTTAAGA,0.0825
2,CCGCTCAC,-0.0576
3,ACGTTGGG,-0.0248
4,ATCCTGCC,-0.201
5,GCTTACAC,-0.0479
6,GGAACAAC,-0.062
7,TCAGGAGA,0.128
8,CCGTAACG,-0.0115
9,GAGGGAAC,-0.256
10,GAGGTAAA,0.181
11,ACGGTATA,-0.0844
12,GGAGAGCC,-0.134
13,AACGTGTC,-0.0119
14,GCGCACTA,-0.0139
15,GCGCGCCC,-0.202
16,AAGTGAAA,0.193
17,CTACAACA,-0.0236
18,ACTATTGC,0.148
19,ATAGACGA,0.0155
20,CCATGAAG,0.0223
21,CTAGCCCA,-0.0917
22,AGTTCAGA,0.0563
23,CGCTCACA,0.00758
24,AGGACCTG,-0.353
25,ATCAGCTA,-0.0233

row,Sequence,PBM E-score
1,AGGATGTC,-0.0121
2,GAAACATA,0.165
3,CGATGACA,0.383
4,CTGGCGGA,-0.342
5,ATGATACG,0.297
6,CTCTGGCC,-0.206
7,GTGACCAA,0.0552
8,CATTTCTA,0.111
9,AGAGTTGA,-0.0802
10,AGATTTCG,0.178
11,TGTACCAA,0.0216
12,ACCGGCCG,0.01
13,GAACCCAC,-0.0399
14,GACGGGAA,-0.102
15,GAAGTCCC,-0.337
16,AGTTTAGA,0.0573
17,AAACACGT,0.179
18,CCTATAAG,-0.228
19,AGGTGGAA,-0.0392
20,ACAAGTCG,-0.227
21,ACAGATCC,0.0419
22,AATCAATT,0.248
23,AGGATACC,-0.251
24,AGGCACTA,-0.0201
25,AGCTAGCG,-0.155

row,Sequence,PBM E-score
1,ATACGTCC,0.061
2,CAAGCAAC,0.111
3,ACCGAAGA,0.0703
4,CTCGGCAA,0.0238
5,AATTCTAG,0.0866
6,ATTGGCTA,-0.122
7,GTAACGTA,0.302
8,CTTTATCC,-0.0303
9,GCAGACGC,-0.0713
10,AAGGGGTC,-0.164
11,GAGGTACA,-0.138
12,GCCTCCCC,-0.158
13,CTCGTCGA,-0.0115
14,AACTGAAT,-0.0699
15,CTATTCGC,0.0102
16,GTAATCAA,0.313
17,AACTATCT,0.00607
18,CCCCCTGC,-0.425
19,AGTCCTGC,-0.188
20,CTGAGCAC,-0.235
21,CCATGACA,0.271
22,CTGCTGGA,-0.116
23,ACCTATTA,0.0751
24,ATAAACTC,0.125
25,CAGTATCG,-0.113

row,Sequence,PBM E-score
1,ACAAGCCA,-0.163
2,ATTCATAA,0.176
3,CCGCACAG,-0.00582
4,CGGCAAGC,-0.0498
5,CCCTGGCG,-0.238
6,CTCGTGCC,0.0129
7,AGGCAATG,0.185
8,AGGGTGAC,0.345
9,GACCTTAA,-0.0362
10,CTATATCC,-0.0137
11,ATATCCTC,-0.0369
12,CGACATTC,-0.00214
13,AGAGTACT,-0.0636
14,CAACTTGG,0.0766
15,AGGGTGAG,-0.176
16,CATCATAA,0.291
17,AACGGCCC,-0.14
18,CCAGAAAA,0.0994
19,CTAATGAC,0.252
20,CCGTGGTA,-0.0264
21,CAGTAAAA,0.104
22,ATCGTGAA,-0.0848
23,ACGGTATC,0.0672
24,CCGATAGA,-0.124
25,CCTTTAGA,-0.0473

row,Sequence,PBM E-score
1,CAACAACG,0.0911
2,AGAATAAA,0.291
3,ACAGAGTG,-0.0722
4,AATGATAT,0.322
5,GTGCCTAA,-0.00582
6,GACGGCTA,0.0897
7,AGGGACAT,-0.181
8,TAAGAATA,0.114
9,ATGCGTCG,0.0508
10,CATGCCCG,-0.0136
11,GCAAAATA,0.201
12,GCAATAGC,0.0326
13,CGCAATGA,0.0802
14,ATCAGTAA,0.273
15,CTTCTTCA,0.00766
16,GGTCGACC,-0.179
17,ACCTCCGC,-0.205
18,CAGACCAA,-0.154
19,CAAGGTTA,0.0789
20,AATAATTG,0.121
21,CAAGCACA,-0.161
22,CTTGTTCA,-0.043
23,ATAACGAA,0.217
24,CCGTACGG,-0.193
25,ACAGTGGG,-0.222

row,Sequence,PBM E-score
1,AAAGTATA,0.185
2,AACGGCGG,-0.102
3,CAACAGGG,-0.178
4,AGCGACCG,-0.0879
5,TCACAGCA,0.181
6,GAATTAGC,0.0469
7,GAGATCAC,0.04
8,AAAGTAAT,0.184
9,AGAAGTAC,-0.0811
10,TGCGCAAA,-0.0425
11,AACACACA,0.133
12,GCGGTACC,-0.149
13,GTCGTGAA,-0.133
14,TGCCAGCA,-0.0744
15,ACTAGGAC,-0.239
16,AACTCTGA,0.205
17,AGATCTTG,-0.0661
18,AACCAGAA,0.0142
19,GAAAGTGA,0.115
20,CTGAATTA,0.131
21,CTGCTAGC,-0.265
22,AAATTACT,0.222
23,AGCGCAAT,0.0127
24,CCGACCAC,-0.191
25,GTGCACAA,-0.189

row,Sequence,PBM E-score
1,ATTGTCTG,0.106
2,ATGGTCGG,-0.165
3,AGTACCGC,-0.0301
4,CAGAAAGC,0.105
5,AAGTCCGT,-0.18
6,GGTTTAAA,0.225
7,ACGTCGAA,0.112
8,CAATATAG,0.0707
9,CTGCACTA,0.0693
10,AGGCATAA,-0.0546
11,GAAGTAGA,0.0684
12,ACAAGCAT,0.017
13,ATGCTGAC,0.2
14,CGATGCTC,-0.239
15,TCACTGCA,0.267
16,TAAACGGA,0.089
17,AGCCACAG,-0.232
18,CCCCTACC,-0.178
19,ACAAAAAG,0.162
20,CAATTCCA,-0.0303
21,CGTTATGC,0.0991
22,CTTACTGA,-0.0696
23,ATCTACAC,0.137
24,CCCGATAG,-0.284
25,ACTTTGTA,-0.0265

row,Sequence,PBM E-score
1,CGGCCTAC,-0.154
2,CAGCAAAC,0
3,CCCTACTA,-0.198
4,GATATGTA,0.222
5,CATTGAAG,-0.0928
6,TTAGCGAA,0.0763
7,CGGCTCGC,0.209
8,ACTTTTAT,0.227
9,AATAAGAT,0.232
10,TGGGTACA,-0.0378
11,TAGCGTGA,0.0336
12,ATCATTTG,0.165
13,GGGTAATA,0.112
14,CGATACGA,-0.179
15,CCTACGCA,-0.124
16,CGTCTTCC,-0.0784
17,GCCATCAA,-0.169
18,TAACTTGA,0.0256
19,AGCCTACT,-0.0568
20,ATCGTCCC,0.0558
21,AACCTCGC,-0.106
22,CCCTCCAG,-0.29
23,GACCGAGA,-0.122
24,AAGCGTCG,-0.151
25,GTTGCCGA,0.0213

row,Sequence,PBM E-score
1,AGGCAGCA,0.0454
2,AAGGTGAT,0.111
3,CGTGCCAG,-0.157
4,AATATAAT,0.156
5,CCGACGAC,-0.0829
6,ACCACAAA,0.168
7,CCTTAGAC,-0.0481
8,CTCCATTA,-0.0521
9,GTTACATA,0.228
10,ACTTTGTG,0.101
11,ACCAAATA,0.198
12,CGCCACGA,-0.0813
13,GCCTGCAC,-0.19
14,ACGCGGGA,-0.0943
15,CGTCTACA,-0.134
16,AACGGATG,-0.0223
17,GTTCGGTA,-0.0154
18,TGGCCGAA,-0.0894
19,CTCTCATA,-0.0554
20,CGATGCTA,-0.105
21,CATGACAC,0.328
22,CCAACATA,0.181
23,CAAGTCTG,-0.0136
24,CCCTAAGC,-0.24
25,CGTGCGCA,0.0679

row,Sequence,PBM E-score
1,CAGGGTGA,-0.0149
2,AGTCGCTC,-0.228
3,CAGCATTC,-0.0336
4,ATCTGAAC,-0.0107
5,ACTTCTGG,-0.0785
6,TCTCAGAA,0.115
7,CAATGCGC,0.151
8,TGGGAAAA,0.0883
9,AAGCATTA,-0.0152
10,AATATTGA,0.226
11,TCAAGTGA,0.0697
12,CTACGGGC,-0.389
13,ACACCGTA,-0.059
14,ACTTCGCA,0.0833
15,CCTCATCC,-0.272
16,CAGGTAGC,-0.216
17,TAATTGTA,0.258
18,AGAACCTC,-0.158
19,CTGGGGAA,-0.246
20,ATCATCAC,0.341
21,CCGTAGCG,-0.192
22,TAGTAGGA,-0.137
23,ACTAACAA,0.133
24,TCCAACAA,0.0654
25,GACGTATC,0.294

row,Sequence,PBM E-score
1,CAATCTCG,-0.119
2,AAGGACGA,-0.192
3,ATGCTCCA,-0.141
4,GAATTCGC,0.0432
5,CGACGCCG,0.266
6,AAAAGAGG,-0.121
7,GCTTTGAC,0.108
8,ACCGGGCC,-0.137
9,ACCGACAC,-0.0742
10,AGGTATAC,0.0822
11,AGATGACT,0.0398
12,AGGCCTCG,-0.301
13,AATATTCG,0.133
14,GCAAACGC,0.00191
15,CCCTACCC,-0.15
16,GACGTGCA,0.197
17,CTGTGACA,0.228
18,ATAGACGC,0.0881
19,ATCAGGAA,0.0251
20,CCGCTGCA,0.0316
21,CTGCGAAG,-0.246
22,AACAGAGC,-0.0103
23,AACATCTG,-0.118
24,AGCCGAGA,-0.237
25,GGCACCCC,-0.185

row,Sequence,PBM E-score
1,CTGTCTTA,0.0505
2,AGACACGG,0.0103
3,ATGCCCCA,-0.0538
4,CGACTAGC,-0.168
5,CAAGGAGG,-0.0226
6,AGAATCCG,0.0156
7,AATCTTCT,-0.0116
8,TCGGGAGA,-0.252
9,CCGAATAA,0.17
10,CCACAAAG,0.0903
11,ACCCACAT,-0.0953
12,GTACGCTA,-0.0951
13,ACAGAAGA,0.173
14,ACGGTGTG,-0.104
15,ACATTTTG,0.0673
16,TCCTCAGA,-0.159
17,CGCGCAAG,0.0754
18,CAACAACC,0.058
19,CTAAGTTA,0.156
20,AAGATCAT,0.0787
21,CCTCTGAC,0.00321
22,CGAGCCAC,-0.267
23,AGCATAGG,-0.136
24,CGGATATC,-0.00169
25,ATAGTCGA,0.168

row,Sequence,PBM E-score
1,ACACTAGA,-0.0654
2,CCCATGCA,-0.0177
3,TCTATAAA,0.203
4,CATCTTAC,0.173
5,ACAACTAT,0.116
6,CGGCCCAA,-0.105
7,CGGAACCA,0.0566
8,ATTGATGA,0.296
9,GACTAGCC,-0.281
10,ACCGCGAG,-0.076
11,TTAGTAAA,0.193
12,AGGGGATG,-0.161
13,AAGTAGGC,-0.032
14,AGATGCCG,0.215
15,ACGATGGA,-0.0282
16,GATTTAAA,0.036
17,CGTCTTGC,-0.0491
18,GCTTGTTA,-0.0328
19,GCCCTTTA,-0.207

# — the supplement of paper PMC3334620
